Experimental data: paper PMC7824383, “Organic Solution Advanced Spray-Dried Microparticulate/Nanoparticulate Dry Powders of Lactomorphin for Respiratory Delivery: Physicochemical Characterization, In Vitro Aerosol Dispersion, and Cellular Studies” (Pharmaceutics, 2020)
Square brackets hold non-standard residues; d marks the D form. Peptide text beside a SMILES is read from it. * marks the point of attachment. X1 = OC[C@H]1O[C@@H](O[C@H]2[C@H](O)[C@@H](O)[C@H](*)O[C@@H]2CO)[C@H](O)[C@@H](O)[C@H]1O

Test system: A549 adenocarcinoma human alveolar basal epithelial cells
Experiment: Resazurin cell viability assay, A549
Settings: 48 h exposure, 0.1, 1, 10 and 1000 µg/mL, resazurin fluorescence, p > 0.05

CC(C)C[C@H](NC(=O)[C@H](Cc1ccccc1)NC(=O)CNC(=O)[C@H](NC(=O)[C@@H](N)Cc1ccc(O)cc1)[C@H](C)O)C(=O)N[C@@H](CO[C@@H]1O[C@H](CO)[C@@H](O[C@@H]2O[C@H](CO)[C@H](O)[C@H](O)[C@H]2O)[C@H](O)[C@H]1O)C(N)=O [Lactomorphin, H2N-Tyr-D-Thr- Gly-Phe-Leu-Ser-(O-β-Lactoside)-CONH2] (H-Y[dT]GFLS(X1)-NH2)
relative cell viability% vs control: no statistically significant difference
